The target of test [1] is T1, Human CD47 protein HIS Tag (recombinant, plate bound) (human, UniProt Q08722 fragment).
T1 construct: Bought reagent; not shown: His tag
As to the kind of experiment: ELISA on plate bound recombinant human CD47, detection with anti-human IgG4-HRP. The procedure: (§1) Supernatants containing the heterodimers were incubated in CD47 pre-coated 96-well plates. Binding was detected by incubation with an anti-human IgG1- or IgG4-HRP antibody, detection with a TMB substrate, according to a standard ELISA protocol using a plate reader (Thermo Scientific, Multiscan FC) at 450 nm, with reference at 620 nm. O.D. values were used to create a binding curve graph with a GraphPad Prism software.
(§2) Binding of heterodimers to their counterpart ligands/receptors by Sandwich ELISA—Flat bottom 96-wells plates were pre-coated with receptor/ligand of one arm of the analyzed-heterodimer by incubating overnight at 4° C. with a recombinant counterpart protein such as CD47 protein, PDL1 protein, HLA-G protein, or PVR protein, followed by blocking and washing. Serially diluted cell culture supernatant or purified protein samples containing the produced heterodimers were added to the corresponding pre-coated wells. […] Thereafter, in case where the detected Ab was not HRP-labeled, HRP conjugated secondary Ab or streptavidin-HRP was added. Detection was effected with a TMB substrate according to standard ELISA protocol using a plate reader (Thermo Scientific, Multiscan FC) at 450 nm, with reference at 620 nm. […]
In general terms: An ELISA detects its analyte on a solid surface through an enzyme-linked reagent.

Test [2] addresses T2, human PDL1 expressed on cells (human, UniProt Q9NZQ7).
T2 construct: whole, on cells
As to the kind of experiment: flow cytometry on DLD1-PDL1 overexpressing cells against DLD1 WT, supernatant in dilutions, detection with APC anti-PD1 antibody. The procedure: Following incubation of the cells with DSP402, binding of the heterodimer to the DLD1 PDL1 overexpressing cell line was determined by immuno-staining of its PD1 domain using an anti-PD1 antibody, followed by flow cytometry analysis. DLD-1 WT cells were used as a negative cell control for the binding assay. MFI values are presented and were used to create a binding curve graph with a FlowJo software.
Binding of the PD1 domain of the SIGLEC-10-PD1 heterodimer referred to herein as “DSP402” to human PDL1 was determined using DLD1-PDL1 cell line overexpressing PDL1 and an APC conjugated anti-PD1 as a detector antibody (FIG. 11A). DLD1-WT cells, which express low levels of endogenous PDL1, served as a control (FIG. 11A).
For orientation: A flow cytometer gives signals particle by particle.

Test [3] addresses T3, Human PDL-1-Fc (recombinant, plate bound) (human, UniProt Q9NZQ7 fragment, limits assumed).
T3 construct: also called hrPDL1-Fc protein; Human PDL-1 FC Tag; not shown: Fc tag
Put plainly: bridging ELISA: plate bound PDL1-Fc captures DSP502, detected with human CD155 (PVR)-mouse IgG2a Fc and a peroxidase conjugate. The procedure:
Detection was effected with streptavidin HRP followed by adding a TMB substrate according to a standard ELISA protocol using a Plate reader (Thermo Scientific, Multiscan FC) at 450 nm, with reference at 540 nm.
Simultaneous binding of TIGIT-PD1 heterodimer to its counterparts, as determined by ELISA—Flat bottom 96-wells plates were pre-coated with hrPDL1-Fc protein, followed by blocking and washing. Serially diluted purified TIGIT-PD1 heterodimer samples were added to the corresponding pre-coated wells. Following incubation and an additional washing step, a detection protein—human CD155 (PVR) conjugate to mouse IgG2a Fc, was added and allowed to bind to the captured protein. Followed an additional wash, peroxidase-conjugated AffiniPure Goat Anti-Mouse IgG was added and after incubation and wash detection was effected with a TMB substrate according to a standard ELISA protocol using a plate reader (Thermo Scientific, Multiscan FC) at 450 nm, with reference at 620 nm.

The target of test [4] is T4, mouse PDL1 expressed on cells (mouse, UniProt Q9EP73).
T4 construct: whole, on cells; also called mPDL1
T4 sequence (Q9EP73 19-290): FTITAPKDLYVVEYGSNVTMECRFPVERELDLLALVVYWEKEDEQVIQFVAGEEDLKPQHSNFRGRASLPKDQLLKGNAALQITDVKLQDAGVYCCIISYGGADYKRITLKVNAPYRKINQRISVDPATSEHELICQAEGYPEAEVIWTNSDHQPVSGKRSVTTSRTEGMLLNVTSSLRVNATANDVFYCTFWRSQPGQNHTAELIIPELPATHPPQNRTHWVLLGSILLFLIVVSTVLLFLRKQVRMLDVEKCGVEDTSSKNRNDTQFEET
Put plainly: flow cytometry on Renca cells (mouse PD-L1 and mouse PVR), with or without blocking antibodies, detection with PE anti-human IgG1. From the text: MFI values presented were used to create binding curve graphs with a FlowJo software.
Dose dependent binding of the PD1 and TIGIT domains of DSP502 to mouse PDL1 and mouse PVR expressed on cells was also observed, using a AB12 cell line endogenously expressing PVR (FIGS. 22A-B, a PE conjugated anti-human IgG1 antibody was used as a detector antibody) or Renca, cell line endogenously expressing both PD-L1 and PVR (FIGS. 21A-B, a PE conjugated anti-human IgG1 antibody was used as a detector antibody).

In test [5] the target is T2, human PDL1 expressed on cells. As to the kind of experiment: flow cytometry on K562 PD-L1 cells, detection with APC anti-human TIGIT. The protocol: MFI values presented were used to create binding curve graphs with a FlowJo software. […] The surface expression levels of PDL1 and PVR were determined by immuno-staining of the cells with a fluorescently labeled anti-PDL1 or anti-PVR antibody, as indicated, followed by flow cytometry analysis.
T2 sequence (Q9NZQ7 19-290): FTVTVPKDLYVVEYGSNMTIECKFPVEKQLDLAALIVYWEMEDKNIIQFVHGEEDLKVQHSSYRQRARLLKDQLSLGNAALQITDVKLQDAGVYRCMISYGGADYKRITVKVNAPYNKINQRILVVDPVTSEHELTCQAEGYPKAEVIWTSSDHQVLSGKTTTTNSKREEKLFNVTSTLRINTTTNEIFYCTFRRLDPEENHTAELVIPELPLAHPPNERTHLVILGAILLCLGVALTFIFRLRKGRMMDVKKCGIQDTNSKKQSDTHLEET
In addition, dose dependent binding of the PD1 and TIGIT domains of DSP502 and another TIGIT-PD1 heterodimer referred to herein as “DSP502V4” (which contains a LALA mutation on the Fc-IgG1 domains) to human PDL1 and human PVR, respectively, were determined using a K562 PD-L1 cell line overexpressing PD-L1, a K562 cell line overexpressing PVR, as well as K562 PVR/PD-L1 cell line overexpressing both PVR and PD-L1 (FIGS. 19A-I).

In test [6] the target is T1, Human CD47 protein HIS Tag …. Put plainly: ELISA on plate bound recombinant human CD47, detection with anti-human IgG1-HRP. The procedure: as §1, §2
Test [7] concerns the target T5, human CD47 expressed on cells (human, UniProt Q08722).
T5 construct: whole, on cells; also called hCD47
Put plainly: flow cytometry on JEG-3 cells (CD47 and HLA-G), with or without CD47 blocker, detection with anti-human IgG1. The procedure:
Binding of the heterodimers to the cell line was determined following incubation with or without a blocking antibody, as indicated, by immuno-staining of the IgG backbone using anti human-IgG1 antibody, followed by flow cytometry analysis. GMFI values are presented and were used to create binding curve graphs with the GraphPad Prism software.
In the same manner, specific dose dependent binding of the LILRB2 domain to human HLA-G and the specific dose dependent binding of the SIRPα domain to CD47 of other SIRPα-LILRB2 heterodimers referred to herein as “DSP216V3”, “DSP216V4”, “DSP216V5” and “DSP216V6” were determined using a HT1080-HLA-G cell line overexpressing HLA-G or JEG3 cell line (both lines expressing both human CD47 and human HLA-G) using an anti-human HLA-G blocking antibody or an anti-human CD47 blocking antibody (FIGS. 16C-17F, an APC conjugated anti-human IgG1 or an APC conjugated anti-SIRPα antibody was used as a detector antibody).

B1: SIRPα-LILRB2 heterodimer DSP216V1 (Fc fusion)
chain 1: [letters of about 350 residues not shown]GGGGSGGGGS[letters of human IgG4 Fc with S228P L235E Y349C T366W (EU numbers) not shown]
chain 2: QTGTIPKPTLWAEPDSVITQGSPVTLSCQGSLEAQEYRLYREKKSASWITRIRPELVKNGQFHIPSITWEHTGRYGCQYYSRARWSELSDPLVLVMTGAYPKPTLSAQPSPVVTSGGRVTLQCESQVAFGGFILCKEGEEEHPQCLNSQPHARGSSRAIFSVGPVSPNRRWSHRCYGYDLNSPYVWSSPSDLLELLVPGVSKKPSLSVQPGPVVAPGESLTLQCVSDVGYDRFVLYKEGERDLRQLPGRQPQAGLSQANFTLGPVSRSYGGQYRCYGAHNLSSECSAPSDPLDILITGQIRGTPFISVQPGPTVASGENVTLLCQSWRQFHTFLLTKAGAADAPLRLRSIHEYPKYQAEFPMSPVTSAHAGTYRCYGSLNSDPYLLSHPSEPLELVVSGGGGSGGGGSGGGGSESKYGPPCPPCPAPEFEGGPSVFLFPPKPKDTLMISRTPEVTCVVVDVSQEDPEVQFNWYVDGVEVHNAKTKPREEQFNSTYRVVSVLTVLHQDWLNGKEYKCKVSNKGLPSSIEKTISKAKGQPREPQVYTLPPSQCEMTKNQVSLSCAVKGFYPSDIAVEWESNGQPENNYKTTPPVLDSDGSFFLVSRLTVDKSRWQEGNVFSCSVMHEALHNHYTQKSLSLSLGK
notes: Knob-into-hole IgG4 Fc heterodimer made in Expi293F; tested as crude supernatant and as purified protein
B1: the binding result in test [1] was “binds”.

B2: SIRPα-LILRB2 heterodimer DSP216V4 (Fc fusion)
chain 1: EEELQVIQPDKSVLVAAGETATLRCTATSLIPVGPIQWFRGAGPGRELIYNQKEGHFPRVTTVSDLTKRNNMDFSIRIGNITPADAGTYYCVKFRKGSPDDVEFKSGAGTELSVRAKGGGGSGGGGS[letters of human IgG4 Fc with S228P L235E Y349C T366W (EU numbers) not shown]
chain 2: B1 chain 2
notes: Knob-into-hole IgG4 Fc heterodimer made in Expi293F
Turning to B2, the binding result in test [1] is listed as “binds”.

B3: SIGLEC10-PD1 heterodimer DSP402 (Fc fusion)
chain 1: DGRFWIRVQESVMVPEGLSISVPCSFSYPRQDWTGSTPAYGYWFKAVTETTKGAPVATNHQSREVEMSTRGRFQLTGDPAKGNCSLVIRDAQMQDESQYFFRVERGSYVRYNFMNDGFFLKVTALTQKGGGGSGGGGSGGGGS[letters of human IgG1 Fc with changes not shown]
chain 2: DSPDRPWNPPTFSPALLVVTEGDNATFTCSFSNTSESFVLNWYRMSPSNQTDKLAAFPEDRSQPGQDSRFRVTQLPNGRDFHMSVVRARRNDSGTYLCGAISLAPKAQIKESLRAELRVTERRAEVPTAHPSPSPRPAGQGGGGSGGGGS[letters of human IgG1 Fc with changes not shown]
notes: Knob-into-hole IgG1 Fc heterodimer made in Expi293F
Take B3: in test [2], the binding result is listed as “binds”.

B4: TIGIT-PD1 heterodimer DSP502 (Fc fusion)
chain 1: MTGTIETTGNISAEKGGSIALQCHLSSTTAQVTQVNWEQQDQLLAISNADLGWHISPSFKDRVAPGPGLGLTLQSLTVNDTGEYFCIYHTYPDGTYTGRIFLEVLESSVAEHGGGGSGGGGS[letters of human IgG1 Fc with changes not shown]
chain 2: DSPDRPWNPPTFSPALLVVTEGDNATFTCSFSNTSESFVLNWYRMSPSNQTDKLAAFPEDRSQPGQDSRFRVTQLPNGRDFHMSVVRARRNDSGTYLCGAISLAPKAQIKESLRAELRVTERRAEVPTAHPSPSPRPAGQGGGGSGGGGS[letters of human IgG1 Fc with changes not shown]
notes: Knob-into-hole IgG1 Fc heterodimer made in Expi293F; tested as supernatant and as purified protein; also called PD1-TIGIT heterodimer
Consider B4, for which, in test [3], the “EC50 (read off the curve)” value was ~5 µg/mL. Further, in test [4], the binding result is recorded as “binds”.

B5: TIGIT-PD1 heterodimer DSP502V4 (Fc fusion)
chain 1: MTGTIETTGNISAEKGGSIALQCHLSSTTAQVTQVNWEQQDQLLAISNADLGWHISPSFKDRVAPGPGLGLTLQSLTVNDTGEYFCIYHTYPDGTYTGRIFLEVLESSVAEHGGGGSGGGGS[letters of human IgG1 Fc with changes not shown]
chain 2: DSPDRPWNPPTFSPALLVVTEGDNATFTCSFSNTSESFVLNWYRMSPSNQTDKLAAFPEDRSQPGQDSRFRVTQLPNGRDFHMSVVRARRNDSGTYLCGAISLAPKAQIKESLRAELRVTERRAEVPTAHPSPSPRPAGQGGGGSGGGGSEPKSSDKTHTCPPCPAPEAAGGPSVFLFPPKPKDTLMISRTPEVTCVVVDVSHEDPEVKFNWYVDGVEVHNAKTKPREEQYNSTYRVVSVLTVLHQDWLNGKEYKCKVSNKALPAPIEKTISKAKGQPREPQVCTLPPSRDELTKNQVSLSCAVKGFYPSDIAVEWESNGQPENNYKTTPPVLDSDGSFFLVSKLTVDKSRWQQGNVFSCSVMHEALHNHYTQKSLSLSPGK
As to B5, the binding result in test [5] is “binds”.

B6: SIRPα-LILRB2 heterodimer DSP216V3 (Fc fusion)
chain 1: EEELQVIQPDKSVLVAAGETATLRCTATSLIPVGPIQWFRGAGPGRELIYNQKEGHFPRVTTVSDLTKRNNMDFSIRIGNITPADAGTYYCVKFRKGSPDDVEFKSGAGTELSVRAKGGGGSGGGGS[letters of human IgG1 Fc with changes not shown]
chain 2: QTGTIPKPTLWAEPDSVITQGSPVTLSCQGSLEAQEYRLYREKKSASWITRIRPELVKNGQFHIPSITWEHTGRYGCQYYSRARWSELSDPLVLVMTGAYPKPTLSAQPSPVVTSGGRVTLQCESQVAFGGFILCKEGEEEHPQCLNSQPHARGSSRAIFSVGPVSPNRRWSHRCYGYDLNSPYVWSSPSDLLELLVPGVSKKPSLSVQPGPVVAPGESLTLQCVSDVGYDRFVLYKEGERDLRQLPGRQPQAGLSQANFTLGPVSRSYGGQYRCYGAHNLSSECSAPSDPLDILITGQIRGTPFISVQPGPTVASGENVTLLCQSWRQFHTFLLTKAGAADAPLRLRSIHEYPKYQAEFPMSPVTSAHAGTYRCYGSLNSDPYLLSHPSEPLELVVSGGGGSGGGGSGGGGS[letters of human IgG1 Fc with changes not shown]
notes: as for B3
For the molecule B6, the binding result in test [6] and in test [7] was “binds” each time.

A word on the EC50 (read off the curve): it is the concentration at which the effect is half-maximal.

The values above are taken from patent publication US20240076346A1 (KAHR MEDICAL, published 2024).
